In all, about 45,000 compounds went through this assay and about 65 (0.1%) were called active. Calls come from the whole dose curve; as a rule, active = well fitted activation curve with a large enough effect; inconclusive = small, poorly fitted or top-dose-only effect; inactive = no such curve, though single readings can be large or run the other way. The list shows a part of the results.

Chain of UniProt P54803 (P54803 whole entry, looked up): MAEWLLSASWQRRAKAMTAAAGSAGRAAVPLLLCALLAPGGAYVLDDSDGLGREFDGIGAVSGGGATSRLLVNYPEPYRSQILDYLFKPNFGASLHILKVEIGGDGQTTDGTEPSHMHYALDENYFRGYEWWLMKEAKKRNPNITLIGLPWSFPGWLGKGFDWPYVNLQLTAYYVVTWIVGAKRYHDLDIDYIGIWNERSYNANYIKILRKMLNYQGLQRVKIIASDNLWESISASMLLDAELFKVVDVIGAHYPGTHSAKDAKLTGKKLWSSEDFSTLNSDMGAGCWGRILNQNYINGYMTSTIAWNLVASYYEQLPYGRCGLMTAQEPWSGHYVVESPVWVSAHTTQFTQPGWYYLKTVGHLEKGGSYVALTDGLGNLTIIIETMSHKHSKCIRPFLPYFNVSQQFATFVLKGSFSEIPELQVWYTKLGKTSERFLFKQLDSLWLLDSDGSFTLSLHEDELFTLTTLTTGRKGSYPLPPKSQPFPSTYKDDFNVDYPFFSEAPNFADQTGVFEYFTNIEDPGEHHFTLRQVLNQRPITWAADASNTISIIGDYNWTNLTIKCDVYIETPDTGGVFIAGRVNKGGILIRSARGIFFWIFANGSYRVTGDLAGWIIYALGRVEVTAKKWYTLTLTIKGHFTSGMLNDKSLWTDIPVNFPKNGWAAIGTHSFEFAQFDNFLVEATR

The target in this experiment is Galactocerebrosidase (Homo sapiens) (UniProt P54803). Briefly: A Novel Cell-Based Assay to Identify Small Molecules for B -Galactocerebrosidase. Note: 0% is about no effect; nearly all actives have a fitted effect of over 65% in size. The note with it: 145M-Twi-hGALC-G270D cells (Twitcher mouse brain line with human GALC G270D), HMU-beta-Gal fluorescence, 48 h; series mostly up to 57.5 µM; activation: at the top concentration. Put shortly:
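Live 145M-Twi cells (Twitcher mouse brain-derived, GALC-null) stably expressing human GALC-G270D, with a wild-type GALC line, were compound-treated. Residual GALC activity was then read as fluorescence from 0.1 mM final HMU-β-gal at pH 5.2; higher signal means activation.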
Consider `CCc1ccc(C(=O)COC(=O)C(Cc2c[nH]c3ccccc23)NC(=O)c2ccc(CC)cc2)cc1` (configuration not stated), for which the “activation” value was inactive: -8.6%.
With `COc1ccc(CNC(=O)c2cc3cc4ccc(C)cc4nc3o2)cc1`, the “activation” value is inactive: -8.73%.
Regarding `O=C(Cc1ccccc1)Nc1c(C(=O)c2ccccc2)oc2ccccc12`, the “activation” value was inactive: -9.95%.
To `Cc1ccc(NC(=O)CSc2nnc(-c3nnn(-c4ccc(F)cc4)c3C)o2)cc1Br` belongs inactive: -13.5%; to `Cc1ccc(OCC(=O)Nc2nonc2-c2ccc(C)c(C)c2)cc1C`, inactive: -17.7%.
With `Cc1ccc(NC(=O)CN2C(=O)COc3ccc(S(=O)(=O)N4CCCCCC4)cc32)cc1Cl`, the “activation” value was inactive: -23.4%.
To `COc1cccc(N2CCN(C(=O)c3cc4c(s3)-c3c(C)cccc3OC4)CC2)c1` belongs inactive: -9.09%.
The result for `CCCCn1c(=NC(=O)C(C)(C)Oc2ccc(Cl)cc2)c(C(=O)OCC)cc2c(=O)n3ccccc3nc21` reads inactive: -28.1%.
The result for `O=C(Nc1ccc(OC(F)(F)F)cc1)C(Cc1ccccc1)NS(=O)(=O)c1cccc2nsnc12` (configuration not stated) reads inactive: -16.5%; that for `COc1ccccc1C(=O)Nc1cccc(C(=O)OCc2cc(=O)n3nc(C4CC4)sc3n2)c1`, inactive: 1.61%.
As for `Cc1ccc(C)c(CNC(=O)c2ccc3c(c2)nc2n3CCOC2)c1`, the “activation” value is inactive: -13.4%.
To `CC(C)Cc1nn2c(=O)cc(COC(=O)CNC(=O)c3ccc(C(C)(C)C)cc3)nc2s1` belongs inactive: -6.99%; to `CC1CCCN(CCCNC(=O)c2ccc3c(c2)N(Cc2cccc(Cl)c2)C(=O)c2ccccc2S3(=O)=O)C1` (configuration not stated), inactive: -5.06%; to `Cc1ccc(S(=O)(=O)c2nnn3c2nc(NCc2ccc4c(c2)OCO4)c2sccc23)cc1`, inactive: 20.9%.
To `CCOC(=O)c1c(Nc2ccc(O)cc2)nnc(-c2ccccc2)c1-c1ccccc1` belongs inactive: -12.7%.
To `COc1cccc(CNC(=O)Cn2ccc3cc(S(=O)(=O)N4CCCC4)ccc32)c1OC` belongs inactive: -8.08%.
On to `COC(=O)c1ccc(C2c3c(oc4ccc(C)cc4c3=O)C(=O)N2Cc2ccc3c(c2)OCO3)cc1` (configuration not stated), for which the “activation” value was inactive: -2.26%.
The result for `CCN(CC)S(=O)(=O)c1ccc2c(c1)nc(CN(C)C(=O)Nc1ccc(F)cc1)n2C` reads inactive: 16.6%; that for `Cc1ccc(OCCCCn2cnc3ccccc32)cc1`, inactive: -8.82%.
To `Cc1ccc(C)c(CN2C(=O)c3ccccc3S(=O)(=O)c3ccc(C(=O)Nc4cc(F)ccc4F)cc32)c1` belongs inactive: 5.21%; to `COc1ccc(NC(=O)c2nnn(CC(=O)Nc3c(C)cc(C)cc3C)c2N)cc1OC`, inactive: -5.56%.
The result for `Fc1ccc(Nc2nc(SCc3cccc(Cl)c3)nc3ccccc23)cc1` reads inactive: -10.9%.
With `COc1ccc(CNC(=O)C(CCSC)NS(=O)(=O)c2ccc3c(c2)oc(=O)n3C)cc1` (configuration not stated), the “activation” value was inactive: -3.75%.
To `COc1ccc(CNC(=O)CN(c2ccc(C)cc2)S(=O)(=O)c2c(C)noc2C)cc1` belongs inactive: 0.646%; to `O=C(Nc1ccc(C(=O)N2CCCCC2)cc1)c1nsc2ccccc12`, inactive: -11.6%; to `COc1cc(Cl)c(C)cc1NC(=O)CCc1c(C)nc2c3cccnc3nn2c1C`, inactive: -7.75%.
The result for `O=C(Nc1nc2n(n1)C(c1ccccc1)C=C(c1ccccc1)N2)c1ccccc1` (configuration not stated) reads inactive: -11.5%; that for `CS(=O)(=O)c1ccccc1-c1nnc(NC(=O)c2ccc3c(c2)OCCO3)o1`, inactive: -5.37%.
The result for `COc1ccc(CNC(=O)CSc2n[nH]c(-c3ccc(F)cc3)n2)cc1` reads inactive: 3.05%.
As to `CCOc1ccc(-c2cc(NC(=O)c3cccc(Cl)c3)c(C(=O)OC)s2)cc1`, the “activation” value is inactive: -3.39%.
For `Cc1cc(C)cc(NC(=O)CSc2nc3c([nH]c4ccccc43)c(=O)n2-c2ccc(F)cc2)c1`, the “activation” value was inactive: -15.6%.
The result for `CNC(=O)C(=O)NCC(c1ccc2c(c1)OCO2)N1CCOCC1` (configuration not stated) reads inactive: -33.5%.
As for `COc1ccc(CNC(=O)C2=C(C)C(=O)OC23CCCCC3)cc1OC`, the “activation” value is inactive: -4.95%.
Consider `O=C(c1ccc(F)cc1F)N1CCC(c2nc(-c3ccc(S(=O)(=O)N4CCCC4)cc3)no2)CC1`, for which the “activation” value was inactive: -9.78%.
The result for `CC1=C(C(=O)Nc2ccccc2)C(c2ccc(C)cc2)n2nc(SCc3ccccc3C)nc2N1` (configuration not stated) reads inactive: -8.72%; that for `CCCOc1ccc(C(=O)Nc2nonc2-c2ccc(OCC)cc2)cc1`, inactive: -10.8%; that for `CCCc1ccc(S(=O)(=O)N2CCC(c3nnnn3-c3ccc(OC)cc3)CC2)cc1`, inactive: -8.32%.
In the case of `Cc1oc2cc3oc(=O)c(CC(=O)N4CCCCC4)c(C)c3cc2c1C`, the “activation” value was inactive: -11.7%.
To `CCOC(=O)c1ccc(NC(=O)c2cn(-c3ccccc3)nc2-c2ccc(C)cc2)cc1` belongs inactive: -18%; to `CN1CCOC(c2ccccc2)c2ccccc2C1` (configuration not stated), inactive: -9.33%.
As to `CCCOc1ccc(CNC(=O)c2oc3ccc4c(c3c2C)C(=O)CC(C)(CC)O4)cc1` (configuration not stated), the “activation” value is inactive: -16.9%.
To `CCOc1cc(C#N)c(NC(=O)c2ccc(OC)c(S(=O)(=O)N3CCN(c4ccccc4)CC3)c2)cc1OCC` belongs inactive: -10.3%.
`N#CC1=C2SCN(C3CCCCC3)CN2C(=O)CC1c1ccc(Br)cc1` (configuration not stated): the “activation” value is inactive: -9.52%.
`CCc1nnc2c(N3CCN(c4cccc(C(F)(F)F)c4)CC3)nc3ccccc3n12`: the “activation” value was inactive: -23%.
Take `CSc1nc(-c2ccccc2Cl)nc2c1Cc1c(CO)cnc(C)c1O2`: the “activation” value was inactive: -8.04%.
To `COc1ccc(CNC(=O)Cn2c(=O)c3cccn3c3ccccc32)cc1` belongs inactive: -6.37%; to `c1ccc(-c2cc3ncc4c(n3n2)-c2ccccc2OC4)cc1`, inactive: -2.79%.
For the compound `COc1ccc(C2=C(C(C)=O)Sc3nnc(-c4ccc(Cl)cc4)n3N2C(C)=O)cc1OC`, the “activation” value is inactive: -15.5%.
Take `CNc1ccc(-c2nc(-c3ccccc3C)no2)cc1[N+](=O)[O-]`: the “activation” value is inactive: -11.2%.
The result for `CN1CCN(CCCNC(=O)c2cnn(-c3ccc(F)cc3)c2-n2cccc2)CC1` reads inactive: -10.2%.
To `O=C(Nc1c(C(=O)N2CCN(c3ccccc3F)CC2)oc2ccccc12)c1ccco1` belongs inactive: -20.1%; to `COc1cccc(CNc2ncnc3onc(C)c23)c1`, inactive: -39.6%.
Regarding `O=C(Cn1c(=O)n(Cc2ccco2)c(=O)c2oc3ccccc3c21)Nc1ccc(F)c(Cl)c1`, the “activation” value is inactive: -10.9%.
To `COc1ccc(N(CC(=O)N2CCc3ccccc3C2)S(=O)(=O)c2ccc(C)cc2)cc1Cl` belongs inactive: -23%; to `CCCCNc1ccc(C(=O)OCCN(C)C)cc1`, inactive: -24.1%; to `CCC(=O)N1CCc2cc(Br)cc(S(=O)(=O)N3CCC(C(=O)Nc4ccccc4F)CC3)c21`, inactive: -11.9%.
To `CCCCCOc1ccc(Cn2c(=O)oc3ccc(C)cc32)cc1OC` belongs inactive: -44.7%; to `CC(=O)N1CCc2cc(S(=O)(=O)NC(CC(C)C)C(=O)NCc3ccccc3Cl)ccc21` (configuration not stated), inactive: -20.5%.
The result for `CCOC(=O)CCC(=O)Nc1nnc2n1CCS2` reads inactive: -15.5%; that for `O=c1c(NCc2ccccc2Cl)nccn1-c1ccccc1`, inactive: 4.16%; that for `CC(=O)Nc1ccc(-c2nnc3n(Cc4ccc(C)cc4)c(=O)c4ccccc4n23)cc1`, inactive: -15.1%.
In the case of `Cc1ccc(C(=O)Nc2nnc(S(=O)(=O)N3CCCCCC3)s2)cc1`, the “activation” value was inactive: -16.2%.
On to `COc1ccc(CNC(=O)CCc2c(C)c3cc4c(C)c(C)oc4cc3oc2=O)cc1`, for which the “activation” value was inactive: 22.2%.
To `O=C(Cn1ccn(-c2ccc(F)cc2)c(=O)c1=O)Nc1ccccc1C(F)(F)F` belongs inactive: -2.35%; to `CCCCc1nn2c(=O)cc(COC(=O)c3ccccc3NC(=O)c3cccs3)nc2s1`, inactive: -18.1%; to `O=C(Nc1ccc(Cl)cc1Cl)c1cc(S(=O)(=O)N2CCCCCC2)ccc1F`, inactive: -14.1%.
The result for `Cc1cc(C)cc(C(=O)n2nc(C)c(S(=O)(=O)N3CCCCCC3)c2C)c1` reads inactive: 0.84%.
Consider `Cc1c(C(=O)N2CCN(c3ccc(F)cc3)CC2)sc2nc3n(c(=O)c12)CCC3`, for which the “activation” value was inactive: -24.7%.
The result for `O=C1CC(c2cc(F)cc(F)c2)c2cc3c(cc2N1)OCO3` (configuration not stated) reads inactive: 0.477%; that for `CCCCS(=O)(=O)c1oc(-c2cccs2)nc1S(=O)(=O)c1ccc(F)cc1`, inactive: -24.8%; that for `Cc1cccc(-n2c(N)cc(=O)nc2SCC(=O)Nc2ccc(F)cc2)c1C`, inactive: -13.8%.
To `COc1ccc(Br)cc1C(=O)Nc1ccc(-c2nc3ncccc3o2)cc1C` belongs inactive: -11.2%.
As for `CC(C)Cn1c(C2CC(=O)N(c3ccccc3Cl)C2)nc2ccccc21` (configuration not stated), the “activation” value was inactive: -26.1%.
On to `Cc1cccc(NC(=O)Cn2nnc(C(=O)NCc3ccco3)c2N)c1`, for which the “activation” value is inactive: -3.48%.
As for `O=C(Cn1nc(-c2ccccc2)nc(Cc2ccccc2)c1=O)Nc1ccc(Cl)cc1`, the “activation” value was inactive: -11.4%.
Regarding `Cc1oc(-c2ccc(C(=O)NCCN(C)C)cc2)nc1CS(=O)(=O)c1ccccc1`, the “activation” value was inactive: 0.743%.
To `Cc1ccc(C(=O)NCC(=O)OCc2cc(=O)n3ccsc3n2)cc1` belongs inactive: -6.47%; to `CCc1ccc(NC(=O)CSc2ccc3nc(-c4ccc(OC)cc4)cn3n2)cc1`, inactive: -9.29%.
Regarding `COC(=O)CSc1nc2sc3c(c2c(=O)n1-c1ccc(C)cc1)CC(C(C)C)OC3` (configuration not stated), the “activation” value was inactive: -22%.
Turning to `CCN(CC)S(=O)(=O)c1ccc2c(c1)N(CC(=O)Nc1ccc(OC)cc1)C(=O)CS2`, the “activation” value is inactive: -12.6%.
To `Cc1ccccc1CNC(=O)c1oc2c(c1C)-c1nn(Cc3ccc(Cl)cc3)cc1CC2` belongs inactive: -12.3%; to `CCOc1ccc(Cl)cc1CNCCCSc1nnnn1C`, inactive: -10.9%; to `CCOc1ccc(NC(=O)C2CCCN(c3cnccn3)C2)cc1` (configuration not stated), inactive: -2.74%.
Regarding `CCCCCOC(=O)Nc1nc(=O)n([C@@H]2O[C@H](C)[C@@H](O)[C@H]2O)cc1F`, the “activation” value was inactive: -10.6%.
To `Cc1ccc(CN(C(=O)COc2ccccc2[N+](=O)[O-])c2ccccn2)cc1` belongs inactive: -23.3%; to `COC(=O)c1ccccc1NC(=O)c1cnn(-c2ccc(F)cc2)c1-n1cccc1`, inactive: 9.27%.
The result for `CCOc1ccc(-n2nc(CO)c(C(=O)NCc3ccccn3)n2)cc1` reads inactive: -4.23%; that for `CCCN(CCC)CCNC(=O)CN1C(=O)COc2ccc(S(=O)(=O)N3CCOCC3)cc21`, inactive: -9.66%; that for `O=C(NCc1ccccc1Cl)C1CCN(C(=O)N2CCOc3ccccc32)CC1`, inactive: -9.41%.
In the case of `Cc1cccc(OCC(=O)NCCc2nc3ccccc3[nH]2)c1C`, the “activation” value is inactive: -9.63%.
Take `CCC(CC)C(=O)Nc1nnc(S(=O)(=O)N2CCc3ccccc32)s1`: the “activation” value is inactive: -4.37%.
With `COc1ccc(NC(=O)Cn2c(=O)c3cccn3c3ccccc32)cc1Cl`, the “activation” value is inactive: -11.8%.
With `O=C(Nc1ccc(-c2nc3ccccc3o2)c(O)c1)c1ccccc1`, the “activation” value is inactive: -8.74%.
For the compound `Cc1ccc(-c2nnc(Nc3ccc(C(N)=O)cc3)c3ccccc23)cc1S(N)(=O)=O`, the “activation” value is inactive: -16.3%.
Consider `CCOC(=O)c1noc2ncnc(Nc3cc(Cl)c(OC)cc3OC)c12`, for which the “activation” value was inactive: -18.4%.
As to `COc1cccc2sc(NC(=O)c3ccc(S(=O)(=O)N4CCC(C)CC4)cc3)nc12`, the “activation” value was inactive: -22.5%.
The result for `CCN1CCN(CCCNC(=O)CS(=O)(=O)Cc2nc(-c3ccccc3C)oc2C)CC1` reads inactive: -7.57%.

The values are drawn from PubChem BioAssay AID1159614 (National Center for Advancing Translational Sciences (NCATS), 2016).
